In paper PMC9216511 (Science Advances, 2022):

Target: cytoplasmic fragment of rat syntaxin-1A (residues 2-253) (rat, UniProt P32851)
Assay: FRET or BRET

UniProt P32851, sequence (P32851 2-253): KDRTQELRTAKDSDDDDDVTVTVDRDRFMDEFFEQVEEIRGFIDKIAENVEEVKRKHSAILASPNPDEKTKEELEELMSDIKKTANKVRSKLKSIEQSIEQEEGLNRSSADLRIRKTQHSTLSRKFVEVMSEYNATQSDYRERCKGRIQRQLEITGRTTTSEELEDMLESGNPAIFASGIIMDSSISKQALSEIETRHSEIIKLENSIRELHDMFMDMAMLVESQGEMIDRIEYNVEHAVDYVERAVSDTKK

B1: SNAP-25a R136C C84S, C85S, C90S, C92S labeled with tetramethylrhodamine (natural protein)
chain: not shown
binding result: binds
